Results on 167 variants are retold here after the RNAGym collection of RNA variant scans (doi:10.7554/elife.90254).

Read counts are not given, so values of variants with three or more changes are uncertain.

B1: LINE1-full (parent)
chain: UACGUAGGUGGUUUUCCCCUGAUAGUGCUAAGGGGGCCUGGAAGUUUGGACUGGGCAGAGCUCAACACAGCGUGGCAAAGUGGCUGUGGCUAGACUGCCUCUCUGGAUUCCUCGUCACUCAGCAGGGCAUCUCUGAGAGAAAUGCC

The variants in this series derive from B1. Briefly: self-cleavage, relative activity (ratio to wild type); higher = more cleavage; in vitro, sequencing; the parent is a self-cleaving ribozyme.
Consider U15A A69G G114A, for which the self-cleavage worked out at 0.49.
The value for U15C G40A U46C A50U U102C U115C A124U was 0.92; that for U14C U73A A138G was 1.91.
Consider U15A A77G A138G, for which the self-cleavage amounted to 1.92.
The result for U15C C95U U130A U143A reads 0.39; that for U15C U52C U96C, 0; that for U15C U23C A59G C66U A140G, 0.08.
With U15A U46C A142G, the self-cleavage amounted to 1.31.
Regarding U14C U52C A129U, the self-cleavage is 1.47.
The value for U15A C28G A79G was 0.71; that for U15C A92G C128U was 0.18.
Take U14G U39A A79U C84G A121U: the self-cleavage was 0.11.
As to U14C U104C C128U, the self-cleavage was determined as 0.48.
The value for U15C A59C A140G was 0.85; that for U15C A30G U39A U47A G135A was 0.36; that for U14G U15A G36C G53A A142G was 0.97.
Regarding U15A G21A U26A G32A, the self-cleavage was found to be 0.92.
Take U15A U47A A136U: the self-cleavage stood at 1.08.
U15C G27A U85A U104C: the self-cleavage came out at 0.02.
The value for U14C U87A A117U was 0.02.
Regarding U15C G74A U81G U87C A129U, the self-cleavage is 0.15.
For U15A A30G A77G A124U, the self-cleavage was determined as 1.72.
With U15A U87A U130C, the self-cleavage came out at 0.
The value for U15C A22G G75A G97A U112C U143C was 0.11.
The value for U14C U104C U119C U134C was 1.93.
The result for U15A U46C A79C U108C reads 0; that for U14C U47C U100C A129G, 1.31; that for U15A U26C U87C, 0.51.
Regarding U14C U100C A107G, the self-cleavage was 1.28.
As for U15C A31U A78G A94U U96C, the self-cleavage was determined as 0.37.
U15C A67U A107G U143C: the self-cleavage is 0.
With U15C C17U C71U A78G, the self-cleavage is 0.32.
In the case of U15A A78U U132C A142G, the self-cleavage came to 1.87.
On to U15C U45C A50G, for which the self-cleavage amounted to 2.16.
Consider U15C C19U U62C U91C A141U, for which the self-cleavage was 0.06.
As for U15A U47C A50U U73C G125A U143C, the self-cleavage was 1.06.
The value for U14C U81A U112A was 1.56.
The value for U15A G41U A79U A129G was 1.37; that for U15C G21A A69G A117G G122U was 0.78; that for U14C U87C U134A was 0.
For the variant U15C U73G U112C, the self-cleavage was 1.17.
For the variant U15C U23C A50G A65U G82A U132A, the self-cleavage stood at 0.28.
Regarding U15A U115C U143A, the self-cleavage was 0.74.
With U15C C51U A140U A141G, the self-cleavage came to 1.21.
The value for U15C A42G A79G was 2.15; that for U14C U47C A94G A117U U143C was 0.18; that for U14C U100C U112C A141G was 1.94.
The result for U15C G25A A57G C128U reads 0.7.
U15A G33U A59U U119C: the self-cleavage turned out to be 1.21.
Regarding U15C A67G U87C A129G A141G, the self-cleavage worked out at 0.
With U15C A43G A92U, the self-cleavage came out at 0.38.
Turning to U15A U46C U62C U130C, the self-cleavage is 0.26.
On to U15A U45C A69U U96C A121U G125U A136U, for which the self-cleavage was 0.
As to U15C A107G U115A, the self-cleavage was 1.46.
The value for U14C U91C U96A was 0.35; that for U15C U23C U26A U100C was 1.02; that for U15C A57U C68U was 0.03.
The value for U15C A22G A43G was 1.15; that for U15C C90U U108C was 0.07; that for U15C A59U A107U was 1.
Regarding U15A A67G U112A U134A, the self-cleavage is 0.57.
With U14C U112A A142G, the self-cleavage came out at 1.38.
The result for U15C U81A U91C U102C reads 2.23.
Consider U15A U29A U46C U134G, for which the self-cleavage amounted to 0.71.
U15C G32U U102A U119C A141G: the self-cleavage was determined as 1.66.
For U15C C128U U130C U143C, the self-cleavage is 1.07.
With U15C A30G U134C, the self-cleavage worked out at 0.93.
For U15C A30G U119C A129G A141U A142G, the self-cleavage worked out at 1.84.
For U15A A64G U130C, the self-cleavage amounted to 0.23.
On to U15A A57G A64U U119A U134A, for which the self-cleavage was 0.13.
The result for U14C U46C U62C C110U reads 0.11; that for U15C A31G A64G, 0.8; that for U15C A31G A64U, 0.95.
As for U14C U47C U108C, the self-cleavage came to 1.97.
The value for U15A U104C A129U was 0.67.
For the variant U15C U46C C63U U102C, the self-cleavage amounted to 0.33.
The value for U15A C133A A141G was 0.69.
With U15C U26C A77G C110A A141U, the self-cleavage was found to be 2.3.
The result for U15A U23C U112C reads 0.69; that for U14C U47C A140G, 1.28; that for U14C U115C A141G, 1.62.
Consider U15A U29C A59G U62A A92G C111U, for which the self-cleavage came to 0.
With U15C U26C A79G U100C A136G, the self-cleavage was determined as 2.12.
With U15C A129U U130C, the self-cleavage worked out at 1.84.
The value for U15A A31G U52A U96A was 0.22; that for U15C U45A A69G was 0.41; that for U15C U47C A78G was 1.69.
Turning to U15C G40U A64C U85C, the self-cleavage worked out at 0.08.
For U15C U47A A136G, the self-cleavage came to 1.82.
The value for U15C A43U U46A was 0.96; that for U15C U26A A42G U85A was 0.24; that for U15C A57G G89U A138G was 0.04.
As for U15C G89A U100C, the self-cleavage came out at 0.02.
For U15C U20C A43U A59G, the self-cleavage was found to be 0.15.
Turning to U14C U115C A136G, the self-cleavage came out at 2.63.
In the case of U14G A67U A129U, the self-cleavage came out at 0.25.
For the variant U14C U62C G93U U102C, the self-cleavage was 0.06.
Regarding U15C A77G A140G, the self-cleavage worked out at 2.45.
Take U14C U62C U73C: the self-cleavage worked out at 0.09.
Take U15C A78U U104A U112A: the self-cleavage worked out at 2.44.
Turning to U15C A77G U134A, the self-cleavage came out at 2.42.
On to U15A G33U A79U U102C U132C A141G, for which the self-cleavage was 1.39.
Turning to U15A U46C U119C, the self-cleavage was determined as 1.47.
On to U15C A59G U115A, for which the self-cleavage was determined as 0.13.
For the variant U15C U45C U52C A121G, the self-cleavage worked out at 1.15.
The result for U15C G88A A136U reads 0.07; that for U15C A31U A136U, 1.03.
With U15C U62C A79G U132A, the self-cleavage is 0.
Regarding U14C U96A G126U A140U A142C, the self-cleavage was 0.08.
With U15C U62A A107G A140G, the self-cleavage is 0.
For the variant U15C A30G U108C U115A U143C, the self-cleavage came to 1.41.
The value for U15C C16U U102C was 1.88; that for U14G A22G U47A was 0.89.
The result for U15C U20C G40A A42G U46C A50G U73A reads 1.53; that for U14C U102C A136U, 1.43.
The result for U15C G41U U47A U73C A79G reads 0.88; that for U14C U87A U119C, 0.1.
For the variant U14C U47C U104C, the self-cleavage turned out to be 1.31.
U14C U47C A121G: the self-cleavage came to 0.54.
For U15A A65U A107G, the self-cleavage was 0.29.
The result for U15C A64U U85A U87C reads 0.34; that for U15C U29C U73C, 0.
The value for U15C U62C G93A C99U U108A was 0.05; that for U15C U47A C98U was 0.4; that for U15C G41U A43G was 1.28.
Take U14G U46C G54C A141G: the self-cleavage came to 0.65.
For the variant U15C A31U U47C A78U U85C, the self-cleavage turned out to be 0.63.
In the case of U14C U52C A117U, the self-cleavage worked out at 1.58.
For the variant U14C U85A U119C, the self-cleavage was found to be 0.07.
In the case of U15A A24U U81C A117G, the self-cleavage turned out to be 0.71.
The result for U15C U47A A78G reads 1.16.
As for U15C U39C A50U U81C A94G U143C, the self-cleavage worked out at 0.57.
On to U15C G49A A64G U102C A136G, for which the self-cleavage came out at 0.59.
On to U14C U73C U115C A129U, for which the self-cleavage amounted to 0.
Take U15C U39C A117U: the self-cleavage was found to be 1.55.
As to U15C C28U A64G, the self-cleavage was determined as 0.26.
In the case of U15C G41A A69G, the self-cleavage came to 0.59.
The result for U15A A50G U52C reads 0.
As for U14C U62C A94G, the self-cleavage amounted to 0.
The result for U15C G55A U62A reads 0.02; that for U15A A24G A78C, 1.11; that for U15C C19U U115C A124G, 0.77.
Consider U15C A64U A124G A129G A140U, for which the self-cleavage was 0.36.
In the case of U14G A42G A57U U62C, the self-cleavage stood at 0.24.
On to U15A A42G C90U U134C, for which the self-cleavage stood at 0.08.
Turning to U15C A22G G126A, the self-cleavage was 1.18.
The result for U15C U45A A65G U119A A129G reads 0.
The value for U15C U47C C76U U85G A121G was 0.19; that for U15A U45C A136G was 0.93; that for U15A U62C G89C U96A was 0.03.
Consider U15C U23C U29C A138U, for which the self-cleavage was determined as 0.9.
With U15A U46C U115C, the self-cleavage came to 0.38.
On to U15C A30U G34A A77C, for which the self-cleavage came out at 1.3.
U15C U29C G44C U102C: the self-cleavage is 1.28.
The value for U15C A94G C98U U112C was 0.11.
Regarding U15C A22C A142G, the self-cleavage is 1.37.
The result for U15C U26C U85A reads 0.28; that for U15C A22G A65U A77G A142U, 0.53; that for U14C U85A U112A, 0.08.
For U15A G35U U100C, the self-cleavage came to 1.33.
Regarding U15A U29G U102A, the self-cleavage was found to be 0.64.
On to U15C U47C G54A A64U U87C, for which the self-cleavage stood at 0.12.
Take U14C U85C U112C A138G: the self-cleavage came out at 0.48.
The result for U14C U62C A138G reads 0.1; that for U15C U26A G83A U134C, 0.98; that for U14C U62C G74A, 0.05.
Take U15A A57U A79G A94C: the self-cleavage turned out to be 0.15.
